Experimental data: patent publication US20260013501A1, “HERBICIDAL DERIVATIVES” (SYNGENTA CROP PROTECTION AG, priority 2022, published 2026)
The name of at least one read-out is uncertain.

How the values were obtained:
Format in all cases: in vivo
[1] = system: Amaranthus palmeri (AMAPA); experiment: Pre-emergence Test (Table B1), AMAPA; settings: Rate 250 g/Ha, evaluated after 13 days
[2] = system: Amaranthus retoflexus (AMARE); experiment: Pre-emergence Test (Table B1), AMARE; settings: Rate 250 g/Ha, evaluated after 13 days
Setaria faberi (SETFA) [3] = experiment: Pre-emergence Test (Table B1), SETFA; settings: Rate 250 g/Ha, evaluated after 13 days
[4] = system: Ipomoea hederacea (IPOHE); experiment: Pre-emergence Test (Table B1), IPOHE; settings: Rate 250 g/Ha, evaluated after 13 days
[5] = system: Echinochloa crus-galli (ECHCG); experiment: Pre-emergence Test (Table B1), ECHCG; settings: Rate 250 g/Ha, evaluated after 13 days
Setaria faberi (SETFA) [6] = experiment: Post-emergence Test (Table B2), SETFA; design: key: five-point scale: 5=81-100%, 4=61-80%, 3=41-60%, 2=21-40%, 1=0-20% damage; settings: rate 250 g/Ha, evaluated after 13 days
Outline: (§1)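 Evaluation 13 days post-spray gives percent plant damage, reported in five 20% bands (1=0-20% up to 5=81-100%). Test species, sown in soil and kept at 24/16 °C day/night with 14 h light, are treated with compound in 50:50 acetone/water plus 0.5% Tween 20, applied per g/ha.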

[7] = system: Ipomoea hederacea (IPOHE); experiment: Post-emergence Test (Table B2), IPOHE; design: key: five-point scale: 5=81-100%, 4=61-80%, 3=41-60%, 2=21-40%, 1=0-20% damage; settings: rate 250 g/Ha, evaluated after 13 days
Outline: as §1

Zea mays (ZEAMX) [8] = experiment: Pre-emergence Test (Table B1), ZEAMX; settings: Rate 250 g/Ha, evaluated after 13 days
[9] = system: Amaranthus palmeri (AMAPA); experiment: Post-emergence Test (Table B2), AMAPA; design: key: five-point scale: 5=81-100%, 4=61-80%, 3=41-60%, 2=21-40%, 1=0-20% damage; settings: rate 250 g/Ha, evaluated after 13 days
Outline: as §1

Zea mays (ZEAMX) [10] = experiment: Post-emergence Test (Table B2), ZEAMX; design: key: 5-point damage scale: 5=81-100%, 4=61-80%, 3=41-60%, 2=21-40%, 1=0-20%; settings: rate 250 g/Ha, evaluated after 13 days
Outline: as §1

[11] = system: Amaranthus retoflexus (AMARE); experiment: Post-emergence Test (Table B2), AMARE; design: key: five-point scale: 5=81-100%, 4=61-80%, 3=41-60%, 2=21-40%, 1=0-20% damage; settings: rate 250 g/Ha, evaluated after 13 days
Outline: as §1

[12] = system: Echinochloa crus-galli (ECHCG); experiment: Post-emergence Test (Table B2), ECHCG; design: key: 5-point damage scale: 5=81-100%, 4=61-80%, 3=41-60%, 2=21-40%, 1=0-20%; settings: rate 250 g/Ha, evaluated after 13 days
Outline: as §1

SMILES | Pre-emergence Test, percentage damage caused to the plant (five-point scale), AMAPA [1] | Pre-emergence Test, percentage damage caused to the plant (five-point scale), AMARE [2] | Pre-emergence Test, percentage damage caused to the plant (five-point scale), SETFA (Setaria faberi (SETFA) [3]) | Pre-emergence Test, percentage damage caused to the plant (five-point scale), IPOHE [4] | Pre-emergence Test, percentage damage caused to the plant (five-point scale), ECHCG [5] | percentage damage caused to the plant, SETFA (Setaria faberi (SETFA) [6]) | percentage damage caused to the plant, IPOHE [7] | Pre-emergence Test, percentage damage caused to the plant (five-point scale), ZEAMX (Zea mays (ZEAMX) [8]) | percentage damage caused to the plant, AMAPA [9] | percentage damage caused to the plant, ZEAMX (Zea mays (ZEAMX) [10]) | percentage damage caused to the plant, AMARE [11] | percentage damage caused to the plant, ECHCG [12]
CCn1c(Cc2ccc(C)c(F)n2)cc(=O)c(C(=O)O)c1-c1ccc(Cl)c(Cl)c1 [Compound 118, 2-(3,4-dichlorophenyl)-1-ethyl-6-[(6-fluoro-5-methyl-2-pyridyl)methyl]-4-oxo-pyridine-3-carboxylic acid] | 2 (2=21-40%) | 2 (2=21-40%) | 4 (4=61-80%) | 2 (2=21-40%) | 4 (4=61-80%) | 4 (4=61-80%) | 4 (4=61-80%) | 1 (1=0-20%) | 2 (2=21-40%) | 4 (4=61-80%) | 3 (3=41-60%) | 4 (4=61-80%)
CCn1c(Cc2cccc(C(C)(F)F)n2)cc(=O)c(C(=O)O)c1-c1ccc(Cl)c(Cl)c1 [Compound 119, 2-(3,4-dichlorophenyl)-6-[[6-(1,1-difluoroethyl)-2-pyridyl]methyl]-1-ethyl-4-oxo-pyridine-3-carboxylic acid] | 1 (1=0-20%) | 2 (2=21-40%) | 5 (5=81-100%) | 2 (2=21-40%) | 4 (4=61-80%) | 4 (4=61-80%) | 3 (3=41-60%) | 3 (3=41-60%) | 2 (2=21-40%) | 3 (3=41-60%) | 3 (3=41-60%) | 4 (4=61-80%)
CCCn1ccc(Cc2cc(=O)c(C(=O)O)c(-c3ccc(Cl)c(Cl)c3)n2CC)n1 [Compound 122, 2-(3,4-dichlorophenyl)-1-ethyl-4-oxo-6-[(1-propylpyrazol-3-yl)methyl]pyridine-3-carboxylic acid] | 1 (1=0-20%) | 1 (1=0-20%) | 4 (4=61-80%) | 3 (3=41-60%) | 4 (4=61-80%) | 4 (4=61-80%) | 3 (3=41-60%) | 3 (3=41-60%) | 2 (2=21-40%) | 3 (3=41-60%) | 1 (1=0-20%) | 4 (4=61-80%)
CCn1ccc(Cc2cc(=O)c(C(=O)O)c(-c3ccc(Cl)c(Cl)c3)n2CC)n1 [Compound 123, 2-(3,4-dichlorophenyl)-1-ethyl-6-[(1-ethylpyrazol-3-yl)methyl]-4-oxo-pyridine-3-carboxylic acid] | 1 (1=0-20%) | 1 (1=0-20%) | 5 (5=81-100%) | 4 (4=61-80%) | 4 (4=61-80%) | 4 (4=61-80%) | 4 (4=61-80%) | 4 (4=61-80%) | 2 (2=21-40%) | 4 (4=61-80%) | 2 (2=21-40%) | 4 (4=61-80%)
CCn1c(Cc2ccn(C(C)C)n2)cc(=O)c(C(=O)O)c1-c1ccc(Cl)c(Cl)c1 [Compound 125, 2-(3,4-dichlorophenyl)-1-ethyl-6-[(1-isopropylpyraozl-3-yl)methyl]-4-oxo-pyridine-3-carboxylic acid] | 1 (1=0-20%) | 1 (1=0-20%) | 3 (3=41-60%) | 4 (4=61-80%) | 4 (4=61-80%) | 4 (4=61-80%) | 3 (3=41-60%) | 3 (3=41-60%) | 1 (1=0-20%) | 3 (3=41-60%) | 1 (1=0-20%) | 4 (4=61-80%)
CCn1c(Cc2cccc(Cl)n2)cc(=O)c(C(=O)O)c1-c1ccc(F)c(F)c1 [Compound 131, 6-[(6-chloro-2-pyridyl)methyl]-2-(3,4-difluorophenyl)-1-ethyl-4-oxo-pyridine-3-carboxylic acid] | 1 (1=0-20%) | 2 (2=21-40%) | 5 (5=81-100%) | 2 (2=21-40%) | 3 (3=41-60%) | 3 (3=41-60%) | 4 (4=61-80%) | 2 (2=21-40%) | 2 (2=21-40%) | 4 (4=61-80%) | 3 (3=41-60%) | 4 (4=61-80%)
CCn1c(Cc2cccc(C(F)F)n2)cc(=O)c(C(=O)O)c1-c1ccc(C#N)c(Cl)c1 [Compound 134, 2-(3-chloro-4-cyano-phenyl)-6-[[6-(difluoromethyl)-2-pyridyl]methyl]-1-ethyl-4-oxo-pyridine-3-carboxylic acid] | 1 (1=0-20%) | 1 (1=0-20%) | 5 (5=81-100%) | 3 (3=41-60%) | 5 (5=81-100%) | 3 (3=41-60%) | 4 (4=61-80%) | 4 (4=61-80%) | 1 (1=0-20%) | 3 (3=41-60%) | 2 (2=21-40%) | 3 (3=41-60%)
CCn1c(Cc2nc(Cl)cs2)cc(=O)c(C(=O)O)c1-c1ccc(Cl)c(Cl)c1 [Compound 146, 6-[(4-chlorothiazol-2-yl)methyl]-2-(3,4-dichlorophenyl)-1-ethyl-4-oxo-pyridine-3-carboxylic acid] | 2 (2=21-40%) | 1 (1=0-20%) | 2 (2=21-40%) | 1 (1=0-20%) | 2 (2=21-40%) | 2 (2=21-40%) | 2 (2=21-40%) | 2 (2=21-40%) | 1 (1=0-20%) | 1 (1=0-20%) | 1 (1=0-20%) | 1 (1=0-20%)
